{"source": "PubChem BioAssay AID463173", "about": "(ICCB-Longwood Screening Facility, Harvard Medical School, 2010)", "note": "Out of some 52,000 compounds screened, about 1,700 (3.3%) were called active. Cut-off read from the data, not from the text of the source: active = survival mostly below about 52% (no sharp cut-off); inactive = mostly above about 56%. The list shows a part of the results.", "data": [{"system": "Wild type", "assay": "S. aureus survival, RN4220 and DeltatarO strains – OD600, teichoic acid synthesis inhibitors, primary screen (AID 463173)", "conditions": "S. aureus RN4220 wild type/DeltatarO growth, OD600, 18 h, stronger effect = lower value, screened at 18.75 µg/mL (by protocol)", "values": [{"smiles": "CCCn1c(C(=O)OCC)cc2sccc21", "survival": "inactive: 86%"}, {"smiles": "N#Cc1c[nH]n2c(NC3CCCC3)c(-c3cccc(Cl)c3)nc12", "survival": "inactive: 66%"}, {"smiles": "CCOc1cc(C(=O)N2CCc3c([nH]c4ccccc34)C2c2ccccc2)cc(OCC)c1OCC", "note": "(stereo not drawn)", "survival": "inactive: 77%"}, {"smiles": "O=c1onc(-c2ccc(Cl)cc2)n1Cc1ccc(F)cc1", "survival": "inactive: 109%"}, {"smiles": "CCOC(=O)c1sc2ncn(CC(=O)Nc3ccc(C)cc3Br)c(=O)c2c1C", "survival": "inactive: 84%"}, {"smiles": "O=C(CCCN1C(=O)c2ccccc2C1=O)N1CCCCC1", "survival": "inactive: 109%"}, {"smiles": "COc1ccccc1-n1c(/C=C/c2c(C)n(C)c3ccccc23)nc2ccccc2c1=O", "survival": "inactive: 108%"}, {"smiles": "CCOc1ccc(OCC(=O)Nc2nnc3n2CCS3)cc1", "survival": "inactive: 76%"}, {"smiles": "CCc1ccc(Sc2cc(C(=O)NC(C)CC)c3ccccc3n2)cc1", "note": "(stereo not drawn)", "survival": "inactive: 65%"}, {"smiles": "COc1ccc(-c2noc(CSc3nnc(-c4ccncc4)n3-c3ccc(C)cc3)n2)cc1", "survival": "inactive: 84%"}, {"smiles": "CCOc1ccc(Sc2cc(C(=O)NCCc3ccccc3)c3ccccc3n2)cc1", "survival": "inactive: 72%"}, {"smiles": "CN(Cc1ccccc1)C(=O)c1ccco1", "survival": "inactive: 110%"}, {"smiles": "COc1cccc(CNC(=O)C2CCC(CNS(=O)(=O)c3ccc(Br)s3)CC2)c1", "note": "(stereo not drawn)", "survival": "inactive: 83%"}, {"smiles": "CCOC(=O)C(Cc1c[nH]c2ccccc12)NC(=O)COc1ccc(Cl)c(C)c1", "note": "(stereo not drawn)", "survival": "active: 8%"}, {"smiles": "CCOc1nc(NC(=O)NS(=O)(=O)Oc2ccccc2)nc(-c2ccccc2)n1", "survival": "inactive: 74%"}, {"smiles": "O=S(=O)(c1ccc2c(c1)CCN2)N1CCCCCC1", "survival": "inactive: 75%"}, {"smiles": "Cc1ccc2c(c1)c1c(c(=O)n(Cc3ccccc3)c(=O)n1CC(=O)NCc1ccccc1Cl)n2C", "survival": "inactive: 73%"}, {"smiles": "CN(C(=O)CN1C(=O)CCSc2ccc(S(=O)(=O)N3CCCC3)cc21)c1ccccc1", "survival": "inactive: 71%"}, {"smiles": "CCc1ccc(NCc2cc3cc(OC)c(OC)cc3n(CC(=O)Nc3cc(C)ccc3C)c2=O)cc1", "survival": "inactive: 63%"}, {"smiles": "COc1ccc(S(=O)(=O)N(CC(=O)NCc2ccccc2)c2ccc(C)cc2)cc1OC", "survival": "inactive: 87%"}, {"smiles": "CCC(C)OC(=O)/C(C#N)=C\\c1ccc(-c2cccc(C(F)(F)F)c2)o1", "note": "(stereo not drawn)", "survival": "inactive: 78%"}, {"smiles": "Cc1cccc(C)c1Nc1nc2ccccc2nc1NS(=O)(=O)c1ccccc1", "survival": "inactive: 84%"}, {"smiles": "O=C(Cn1c(=O)nc(-c2ccccc2)c2ccccc21)NCc1ccc(F)cc1", "survival": "inactive: 68%"}, {"smiles": "CCOC(=O)c1cc(=O)n2[nH]c(-c3ccc(Br)cc3)cc2n1", "survival": "inactive: 106%"}, {"smiles": "COc1ccc(-c2noc(CN(C(C)C)S(=O)(=O)c3ccc(Br)cc3)n2)cc1", "survival": "inactive: 81%"}, {"smiles": "CC1=C(C(=O)N2CCN(c3cccc(C)c3C)CC2)C2(CCCCC2)OC1=O", "survival": "inactive: 91%"}, {"smiles": "Cc1cc(O)c(C(c2ccccc2)N2CCN(C)CC2)c(=O)n1Cc1ccco1", "note": "(stereo not drawn)", "survival": "inactive: 121%"}, {"smiles": "C=Cc1ccc(CN2C(=O)c3ccccc3Sc3ccc(C(=O)OCc4ccco4)cc32)cc1", "survival": "inactive: 70%"}, {"smiles": "O=C(Nc1ccccc1)N(Cc1ccc(F)cc1)c1ccccn1", "survival": "inactive: 84%"}, {"smiles": "CCOC(=O)c1c(C)[nH]c(C)c1S(=O)(=O)NCC(=O)N1CCN(c2cccc(C)c2)C(C)C1", "note": "(stereo not drawn)", "survival": "inactive: 120%"}, {"smiles": "Cc1cccc(NC2=CC(c3cccc(Br)c3)N(c3cccc(C)c3)C2=O)c1", "note": "(stereo not drawn)", "survival": "inactive: 118%"}, {"smiles": "Cc1nc2ccc(S(=O)(=O)NC(CC(C)C)C(=O)N3CCN(c4ccc(F)cc4)CC3)cc2s1", "note": "(stereo not drawn)", "survival": "inactive: 84%"}, {"smiles": "O=C1CCC(=O)N1CC(=O)N1CCCc2ccccc21", "survival": "inactive: 113%"}, {"smiles": "Cc1ccc(CNC(=O)c2c(O)nc3c(C)cccn3c2=O)cc1", "survival": "inactive: 85%"}, {"smiles": "Cc1ccc(C)c2[nH]c(=O)c(CN(Cc3ccco3)Cc3nnnn3C(C)(C)C)cc12", "survival": "inactive: 105%"}, {"smiles": "CCN(CC)CCCNC(=O)c1ccc2c(c1)NC(=O)C(CS(=O)(=O)Cc1cccc(Br)c1)N2", "note": "(stereo not drawn)", "survival": "inactive: 121%"}, {"smiles": "CN(C)c1ccc(CNS(=O)(=O)c2ccc3[nH]c4c(c3c2)CCCCC4)cc1", "survival": "inactive: 71%"}, {"smiles": "CC1Oc2ccccc2N(CC(=O)NC2CCCC2)C1=O", "note": "(stereo not drawn)", "survival": "inactive: 97%"}, {"smiles": "COc1ccc(Br)cc1CNC(=O)c1nn(-c2ccc(C)cc2)c(=O)c2c1c1ccccc1n2C", "survival": "inactive: 126%"}, {"smiles": "Cc1ccccc1-c1noc(-c2cccnc2N(C)Cc2ccc(Cl)cc2)n1", "survival": "inactive: 99%"}, {"smiles": "O=C(c1ccccc1)N(Cc1ccc2c(c1)OCO2)Cc1nc2ccccc2c(=O)[nH]1", "survival": "inactive: 109%"}, {"smiles": "CCOC(=O)c1ccc(NC(=O)c2csnn2)cc1", "survival": "inactive: 109%"}, {"smiles": "CCOC(=O)c1cccc(NC(=O)CCC(=O)N2CC(C)Oc3ccc(C)cc32)c1", "note": "(stereo not drawn)", "survival": "inactive: 81%"}, {"smiles": "O=C(C1CC1)N1CCN(c2nc3c(Cl)cccc3s2)CC1", "survival": "inactive: 73%"}, {"smiles": "Fc1ccc(Cc2cn3cc(-c4ccccc4)nc3s2)cc1", "survival": "inactive: 69%"}, {"smiles": "COc1ccc(CCNC(=O)CSc2nnnn2-c2cccc(C(C)=O)c2)cc1OC", "survival": "inactive: 79%"}, {"smiles": "CC1CCN(S(=O)(=O)c2ccc3c(c2)N(CC(=O)NC(C)C)C(=O)CO3)CC1", "survival": "inactive: 81%"}, {"smiles": "Cc1ccc(-c2nnc(Nc3ccc(Cl)c(Cl)c3)c3ccccc23)cc1S(=O)(=O)NCCO", "survival": "inactive: 136%"}, {"smiles": "COc1cccc(CNC(=O)CSc2ncc(S(=O)(=O)c3ccc(Br)cc3)c(=O)[nH]2)c1", "survival": "inactive: 68%"}, {"smiles": "CC1CCN(S(=O)(=O)c2ccc3c(c2)CCN3C(=O)Nc2ccc(Br)cc2)CC1", "survival": "inactive: 82%"}, {"smiles": "Cc1ccccc1C(=O)N1CCN(CCc2ccccn2)CC1", "survival": "inactive: 83%"}, {"smiles": "COc1ccc(CNC(=O)c2ccc3c(c2)CCN3S(=O)(=O)c2ccc(C)cc2)cc1", "survival": "inactive: 99%"}, {"smiles": "C=CCC(C)(NCc1ccccc1)c1ccco1", "note": "(stereo not drawn)", "survival": "inactive: 104%"}, {"smiles": "Cc1ccc(NC(=O)C2CCCN2S(=O)(=O)c2cccc3nsnc23)cc1Cl", "note": "(stereo not drawn)", "survival": "inactive: 67%"}, {"smiles": "COc1ccc(CNC(=O)CSc2ncc(S(=O)(=O)c3ccc(C)c(Cl)c3)c(=O)[nH]2)cc1", "survival": "inactive: 69%"}, {"smiles": "Cc1c(C(=O)Nc2ccc(C(C)C)cc2)sc2nc[nH]c(=O)c12", "survival": "inactive: 73%"}, {"smiles": "O=C1c2cccc3c(N4CCNCC4)ccc(c23)C(=O)N1c1ccc(Cl)cc1", "survival": "inactive: 103%"}, {"smiles": "COc1ccc(C)cc1NC(=O)CSc1ccc(-c2ccccn2)nn1", "survival": "inactive: 81%"}, {"smiles": "COc1ccc(CNC(=O)C2CCCN2)cc1OC", "note": "(stereo not drawn)", "survival": "inactive: 102%"}, {"smiles": "Cn1c(SCC(=O)c2ccc(F)cc2)nnc1-c1ccccc1Br", "survival": "inactive: 74%"}, {"smiles": "Cc1cccc(NC(=O)c2oc3ccccc3c2NC(=O)c2cc(=O)c3cc(Cl)ccc3o2)c1", "survival": "inactive: 85%"}, {"smiles": "COc1ccc2cc(CN(CC3COCCO3)S(=O)(=O)c3c(C)cc(C)cc3C)c(=O)[nH]c2c1", "note": "(stereo not drawn)", "survival": "inactive: 106%"}, {"smiles": "COc1ccccc1C(=O)Nc1c(C(=O)N(C)c2ccccc2)sc2nc(C)cc(C)c12", "survival": "inactive: 91%"}, {"smiles": "O=C(CCS(=O)(=O)c1cc(Br)cc2c1N(C(=O)C1CC1)CC2)Nc1ccc(C(F)(F)F)cc1", "survival": "inactive: 81%"}, {"smiles": "COc1cccc(CNC(=O)CN2C(=O)COc3ccc(S(=O)(=O)Nc4ccccc4)cc32)c1", "survival": "inactive: 73%"}, {"smiles": "Cn1c(=O)c2sccc2n2c(CCC(=O)NCc3ccccc3Cl)nnc12", "survival": "inactive: 146%"}, {"smiles": "CN(Cc1ccccc1)C(=O)C1CCN(S(=O)(=O)c2ccc3nc4c(c(C(=O)O)c3c2)CCCC4)CC1", "survival": "inactive: 87%"}, {"smiles": "COc1ccc(CNC(=O)C2CCN(C(=O)N3CC(C)Oc4ccc(C)cc43)CC2)cc1", "note": "(stereo not drawn)", "survival": "inactive: 114%"}, {"smiles": "Cc1ccc(S(=O)(=O)Nc2nc3n(n2)C(c2ccccc2Cl)C=C(c2ccccc2)N3)cc1", "note": "(stereo not drawn)", "survival": "inactive: 53%"}, {"smiles": "O=C(NC1CCCC1)C1C2C=CC(C2)C1C(=O)N1CCOCC1", "note": "(stereo not drawn)", "survival": "inactive: 124%"}, {"smiles": "COc1ccc(-c2nc(Cn3c(SCc4ccccc4F)nc4ccncc43)c(C)o2)cc1OC", "survival": "inactive: 66%"}, {"smiles": "CCOc1ccc(C(=O)Nc2cc(-c3cn4cccnc4n3)ccc2C)cc1OCC", "survival": "inactive: 83%"}, {"smiles": "CCOC(=O)c1c(C(F)(F)F)cc(-c2ccccc2)nc1C", "survival": "inactive: 102%"}, {"smiles": "O=C1CCCN1C(=O)CCC(=O)N1CCCC1=O", "survival": "inactive: 102%"}, {"smiles": "Cc1cc(C)cc(NC(=O)C2CCC(CNS(=O)(=O)c3ccc4c(c3)C(C)(C)C(=O)N4C)CC2)c1", "note": "(stereo not drawn)", "survival": "inactive: 115%"}, {"smiles": "COc1ccc(CCNC(=O)c2c(C)oc3ncn(CC(C)C)c(=O)c23)cc1OC", "survival": "inactive: 55%"}, {"smiles": "CCn1cc(C(=O)NCCc2ccc(C)cc2)c(=O)c2cc(S(=O)(=O)N3CCCCC3)ccc21", "survival": "inactive: 139%"}, {"smiles": "CC1CCN(c2ncnc3c2nnn3C)CC1", "survival": "inactive: 83%"}, {"smiles": "CCc1ccc2[nH]c(=O)c(C(c3nnnn3C3CCCCC3)N3CCCC3)cc2c1", "note": "(stereo not drawn)", "survival": "inactive: 112%"}, {"smiles": "O=C(Cn1c(=O)n(-c2ccc(Cl)cc2)c(=O)c2oc3ccccc3c21)Nc1ccccc1", "survival": "inactive: 99%"}, {"smiles": "O=C(c1ccco1)N1CCN(c2nc3c(Cl)cccc3s2)CC1", "survival": "inactive: 133%"}, {"smiles": "CCN(CC)S(=O)(=O)c1nnc(NC(=O)c2ccc(C(C)C)cc2)s1", "survival": "inactive: 55%"}, {"smiles": "COc1ccc(C2=C(C)C(=O)N(Cc3ccc(C(=O)Nc4cc(C)ccc4C)cc3)S2(=O)=O)cc1", "survival": "inactive: 85%"}, {"smiles": "O=C(Cc1ccc(Cl)cc1)NCC(c1cccs1)S(=O)(=O)c1ccc(F)cc1", "note": "(stereo not drawn)", "survival": "inactive: 66%"}, {"smiles": "Cn1cnc(S(=O)(=O)N2CCC(C(=O)NCc3ccc(F)cc3)CC2)c1", "survival": "inactive: 65%"}, {"smiles": "COc1cccc(C(=O)Nc2ccccc2-c2nnc(-c3cc(OC)ccc3Br)o2)c1", "survival": "inactive: 80%"}, {"smiles": "Cc1cccc(N2CCN(CCCNC(=O)c3nnc(Cc4c(F)cccc4Cl)o3)CC2C)c1", "note": "(stereo not drawn)", "survival": "inactive: 81%"}, {"smiles": "Cc1nn2c(=O)cc(COC(=O)c3cccc(NC(=O)c4ccc(C(C)(C)C)cc4)c3)nc2s1", "survival": "inactive: 58%"}]}]}
